The supplement of paper PMC8728848
Some of the results follow.

Legend:
Assay in all cases: glycan array binding signal (z-score within array); higher = stronger binding
Settings in all cases: glycan notation: IUPAC condensed, linker removed
[1] = target: Fuc(a1-2)[Gal(a1-3)]Gal(b1-4)[Fuc(a1-3)]Glc
Method in brief: (§1)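 The binding signal is a Z-score computed within each array and averaged over linkers. Arrays of the same protein sequence at different concentrations or buffers were also averaged together. Data originate from 3228 arrays in the Consortium for Functional Glycomics database, kept only where the protein sequence was available.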

[2] = target: Fuc(a1-2)[Gal(a1-3)]Gal(b1-4)[Fuc(a1-3)]GlcNAc
Method in brief: as §1

[3] = target: Fuc(a1-2)[Gal(a1-3)]Gal(b1-4)[Fuc(a1-3)]GlcNAc(b1-3)GalNAc
Method in brief: as §1

[4] = target: Fuc(a1-2)[Gal(a1-4)]Gal(b1-4)GlcNAc
Method in brief: as §1

[5] = target: Fuc(a1-2)[GalNAc(a1-3)]Gal
Method in brief: as §1

[6] = target: Fuc(a1-2)[GalNAc(a1-3)]Gal(b1-3)GalNAc(a1-3)[Fuc(a1-2)]Gal(b1-4)GlcNAc
Method in brief: as §1

[7] = target: Fuc(a1-2)[GalNAc(a1-3)]Gal(b1-3)GlcNAc
Method in brief: as §1

[8] = target: Fuc(a1-2)[GalNAc(a1-3)]Gal(b1-3)GlcNAc(b1-2)Man(a1-3)[Fuc(a1-2)[GalNAc(a1-3)]Gal(b1-3)GlcNAc(b1-2)Man(a1-6)]Man(b1-4)GlcNAc(b1-4)GlcNAc
Method in brief: as §1

[9] = target: Fuc(a1-2)[GalNAc(a1-3)]Gal(b1-3)GlcNAc(b1-2)Man(a1-3)[Fuc(a1-2)[GalNAc(a1-3)]Gal(b1-3)GlcNAc(b1-2)Man(a1-6)]Man(b1-4)GlcNAc(b1-4)[Fuc(a1-6)]GlcNAc
Method in brief: as §1

[10] = target: Fuc(a1-2)[GalNAc(a1-3)]Gal(b1-3)GlcNAc(b1-3)GalNAc
Method in brief: as §1

[11] = target: Fuc(a1-2)[GalNAc(a1-3)]Gal(b1-3)GlcNAc(b1-6)GalNAc
Method in brief: as §1

[12] = target: Fuc(a1-2)[GalNAc(a1-3)]Gal(b1-4)Glc
Method in brief: as §1

[13] = target: Fuc(a1-2)[GalNAc(a1-3)]Gal(b1-4)GlcNAc
Method in brief: as §1

[14] = target: Fuc(a1-2)[GalNAc(a1-3)]Gal(b1-4)GlcNAc(b1-2)Man(a1-3)[Fuc(a1-2)[GalNAc(a1-3)]Gal(b1-4)GlcNAc(b1-2)Man(a1-6)]Man(b1-4)GlcNAc(b1-4)GlcNAc
Method in brief: as §1

[15] = target: Fuc(a1-2)[GalNAc(a1-3)]Gal(b1-4)GlcNAc(b1-2)Man(a1-3)[Fuc(a1-2)[GalNAc(a1-3)]Gal(b1-4)GlcNAc(b1-2)Man(a1-6)]Man(b1-4)GlcNAc(b1-4)[Fuc(a1-6)]GlcNAc
Method in brief: as §1

[16] = target: Fuc(a1-2)[GalNAc(a1-3)]Gal(b1-4)GlcNAc(b1-3)Gal(b1-4)GlcNAc
Method in brief: as §1

[17] = target: Fuc(a1-2)[GalNAc(a1-3)]Gal(b1-4)GlcNAc(b1-3)Gal(b1-4)GlcNAc(b1-3)Gal(b1-4)GlcNAc
Method in brief: as §1

[18] = target: Fuc(a1-2)[GalNAc(a1-3)]Gal(b1-4)GlcNAc(b1-3)GalNAc
Method in brief: as §1

[19] = target: Fuc(a1-2)[GalNAc(a1-3)]Gal(b1-4)[Fuc(a1-3)]GlcNAc
Method in brief: as §1

[20] = target: Fuc(a1-2)[GalNAc(a1-3)]Gal(b1-4)[Fuc(a1-3)]GlcNAc(b1-3)GalNAc
Method in brief: as §1

[21] = target: Fuc(a1-2)[GalNAc(a1-4)]Gal(b1-4)GlcNAc
Method in brief: as §1

[22] = target: Fuc(a1-2)[GalNAc(b1-3)]Gal
Method in brief: as §1

[23] = target: Fuc(a1-3)GlcNAc
Method in brief: as §1

[24] = target: Fuc(a1-3)[Gal(b1-4)]Glc6S
Method in brief: as §1

[25] = target: Fuc(a1-3)[Gal(b1-4)]GlcNAc
Method in brief: as §1

[26] = target: Fuc(a1-3)[Gal(b1-4)]GlcNAc(b1-2)Man
Method in brief: as §1

[27] = target: Fuc(a1-3)[Gal(b1-4)]GlcNAc(b1-2)Man(a1-3)[Fuc(a1-3)[Gal(b1-4)]GlcNAc(b1-2)Man(a1-6)]Man(b1-4)GlcNAc(b1-4)GlcNAc
Method in brief: as §1

[28] = target: Fuc(a1-3)[Gal(b1-4)]GlcNAc(b1-2)Man(a1-3)[Fuc(a1-3)[Gal(b1-4)]GlcNAc(b1-2)Man(a1-6)]Man(b1-4)GlcNAc(b1-4)[Fuc(a1-6)]GlcNAc
Method in brief: as §1

[29] = target: Fuc(a1-3)[Gal(b1-4)]GlcNAc(b1-3)Gal(b1-3)[Fuc(a1-4)]GlcNAc
Method in brief: as §1

[30] = target: Fuc(a1-3)[Gal(b1-4)]GlcNAc(b1-3)GalNAc
Method in brief: as §1

[31] = target: Fuc(a1-3)[Gal(b1-4)]GlcNAc(b1-4)Gal(b1-4)[Fuc(a1-3)]GlcNAc
Method in brief: as §1

[32] = target: Fuc(a1-3)[Gal(b1-4)]GlcNAc(b1-4)Gal(b1-4)[Fuc(a1-3)]GlcNAc(b1-4)Gal(b1-4)[Fuc(a1-3)]GlcNAc
Method in brief: as §1

[33] = target: Fuc(a1-3)[Gal(b1-4)]GlcNAc(b1-6)GalNAc
Method in brief: as §1

[34] = target: Fuc(a1-3)[Gal(b1-4)]GlcNAc(b1-6)[Gal(b1-3)GlcNAc(b1-3)]Gal(b1-4)Glc
Method in brief: as §1

[35] = target: Fuc(a1-3)[Gal(b1-4)]GlcNAc(b1-6)[Neu5Ac(a2-3)Gal(b1-3)]GalNAc
Method in brief: as §1

[36] = target: Fuc(a1-3)[Gal(b1-4)]GlcNAc6S
Method in brief: as §1

[37] = target: Fuc(a1-3)[Gal3S(b1-4)]GlcNAc
Method in brief: as §1

[38] = target: Fuc(a1-3)[Gal3S(b1-4)]GlcNAc6S
Method in brief: as §1

[39] = target: Fuc(a1-3)[GalNAc(b1-4)]GlcNAc
Method in brief: as §1

[40] = target: Fuc(a1-3)[GalNAc(b1-4)]GlcNAc6S
Method in brief: as §1

[41] = target: Fuc(a1-3)[GalNAc3S(b1-4)]GlcNAc
Method in brief: as §1

[42] = target: Fuc(a1-4)GlcNAc
Method in brief: as §1

[43] = target: Fuc(b1-3)GlcNAc
Method in brief: as §1

[44] = target: Gal(a1-2)Gal
Method in brief: as §1

[45] = target: Gal(a1-3)Gal
Method in brief: as §1

B1: CIH1 (Colletotrichum higginsianum) (protein)
chain: LPQATPTTPTPTSASAAATISATSSPTCSPGPVIDYTVVSGDTLTIISQRFSSGICNIADASGITNPNFLSLGQVLQVPTYVCTPDNTSCLAKEGSDTCVEGGPATHTIVAGDTFFLVAQSLGLDVNALLAANEGVDPLLLQIGDVINIPVC
- glycan array binding signal (z-score) [1]: -0.086
- glycan array binding signal (z-score) [2]: -0.09
- glycan array binding signal (z-score) [3]: -0.044
- glycan array binding signal (z-score) [4]: -0.061
- glycan array binding signal (z-score) [5]: -0.076
- glycan array binding signal (z-score) [6]: -0.095
- glycan array binding signal (z-score) [7]: -0.079
- glycan array binding signal (z-score) [8]: -0.052
- glycan array binding signal (z-score) [9]: -0.031
- glycan array binding signal (z-score) [10]: -0.081
- glycan array binding signal (z-score) [11]: -0.039
- glycan array binding signal (z-score) [12]: -0.065
- glycan array binding signal (z-score) [13]: -0.071
- glycan array binding signal (z-score) [14]: -0.074
- glycan array binding signal (z-score) [15]: -0.079
- glycan array binding signal (z-score) [16]: -0.074
- glycan array binding signal (z-score) [17]: -0.053
- glycan array binding signal (z-score) [18]: -0.026
- glycan array binding signal (z-score) [19]: -0.07
- glycan array binding signal (z-score) [20]: -0.073
- glycan array binding signal (z-score) [21]: -0.071
- glycan array binding signal (z-score) [22]: -0.093
- glycan array binding signal (z-score) [23]: -0.046
- glycan array binding signal (z-score) [24]: -0.072
- glycan array binding signal (z-score) [25]: -0.083
- glycan array binding signal (z-score) [26]: -0.06
- glycan array binding signal (z-score) [27]: -0.079
- glycan array binding signal (z-score) [28]: -0.072
- glycan array binding signal (z-score) [29]: -0.049
- glycan array binding signal (z-score) [30]: -0.067
- glycan array binding signal (z-score) [31]: -0.084
- glycan array binding signal (z-score) [32]: -0.08
- glycan array binding signal (z-score) [33]: -0.066
- glycan array binding signal (z-score) [34]: -0.069
- glycan array binding signal (z-score) [35]: -0.072
- glycan array binding signal (z-score) [36]: -0.057
- glycan array binding signal (z-score) [37]: -0.065
- glycan array binding signal (z-score) [38]: -0.056
- glycan array binding signal (z-score) [39]: -0.064
- glycan array binding signal (z-score) [40]: -0.038
- glycan array binding signal (z-score) [41]: -0.054
- glycan array binding signal (z-score) [42]: -0.051
- glycan array binding signal (z-score) [43]: -0.079
- glycan array binding signal (z-score) [44]: -0.046
- glycan array binding signal (z-score) [45]: -0.084
